From US12286661B2, “Methods for making high intensity sweeteners” (Firmenich Incorporated, priority 2018, dated 2025)

B1: SEQ ID NO 979: fusion protein having cucurbitadienol synthase activity (protein)
chain: MWRLKVGKESVGEKEEKWIKSISNHLGRQVWEFCSGENENDDDEAIAVANNSASKFENARNHFRNNRFHRKQSSDLFLAIQCEKEIIRNGAKNEGTTKVKEGEDVKKEAVKNTLERALSFYSAVQTSDGNWASDLGGPMFLLPGLVIALYVTGVLNSVLSKHHRQEMCRYIYNHQNEDGGWGLHIEGSSTMFGSALNYVALRLLGEAADGGEHGAMTKARSWILERGGATAITSWGKLWLSVLGVYEWSGNNPLPPEFWLLPYSLPFHPGRMWCHCRMVYLPMSYLYGKRFVGPITPIVLSLRKELYTIPYHEIDWNRSRNTCAKEDLYYPHPKMQDILWGSIYHVYEPLFSGWPGKRLREKAMKIAMEHIHYEDENSRYICLGPVNKVLNMLCCWVEDPYSDAFKFHLQRIPDYLWLAEDGMRMQGYNGSQLWDTAFSIQAIISTKLIDTFGPTLRKAHHFVKHSQIQEDCPGDPNVWFRHIHKGAWPFSTRDHGWLISDCTAEGLKASLMLSKLPSKIVGEPLEKNRLCDAVNVLLSLQNENGGFASYELTRSYPWLELINPAETFGDIVIDYSYVECTSATMEALALFKKLHPGHRTKEIDAAIAKAANFLENMQKTDGSWYGCWGVCFTYAGWFGIKGLVAAGRTYNNCVAIRKACNFLLSKELPGGGWGESYLSCQNKVYTNLEGNKPHLVNTAWVMMALIEAGQGERDPAPLHRAARLLINSQLESGDFPQQEIMGVFNKNCMITYAAYRNIFPIWALGEYSHRVLDMGSAAPGSGSGSGMDQPRTIV
modifications: SS4e-B2 Full Gene AA seq
B2: SEQ ID NO 975: fusion protein having cucurbitadienol synthase activity (protein)
chain: MWRLKVGKESVGEKEEKWIKSISNHLGRQVWEFCSGENENDDDEAIAVANNSASKFENARNHFRNNRFHRKQSSDLFLAIQCEKEIIRNGAKNEGTTKVKEGEDVKKEAVKNTLERALSFYSAVQTSDGNWASDLGGPMFLLPGLVIALYVTGVLNSVLSKHHRQEMCRYIYNHQNEDGGWGLHIEGSSTMFGSALNYVALRLLGEAADGGEHGAMTKARSWILERGGATAITSWGKLWLSVLGVYEWSGNNPLPPEFWLLPYSLPFHPGRMWCHCRMVYLPMSYLYGKRFVGPITPIVLSLRKELYTIPYHEIDWNRSRNTCAKEDLYYPHPKMQDILWGSIYHVYEPLFSGWPGKRLREKAMKIAMEHIHYEDENSRYICLGPVNKVLNMLCCWVEDPYSDAFKFHLQRIPDYLWLAEDGMRMQGYNGSQLWDTAFSIQAIISTKLIDTFGPTLRKAHHFVKHSQIQEDCPGDPNVWFRHIHKGAWPFSTRDHGWLISDCTAEGLKASLMLSKLPSKIVGEPLEKNRLCDAVNVLLSLQNENGGFASYELTRSYPWLELINPAETFGDIVIDYSYVECTSATMEALALFKKLHPGHRTKEIDAAIAKAANFLENMQKTDGSWYGCWGVCFTYAGWFGIKGLVAAGRTYNNCVAIRKACNFLLSKELPGGGWGESYLSCQNKVYTNLEGNKPHLVNTAWVMMALIEAGQGERDPAPLHRAARLLINSQLESGDFPQQEIMGVFNKNCMITYAAYRNIFPIWALGEYSHRVLDMGSAAPGSGSGSGMGTSIVNLNQKIELPPIQVLFESLNRENETKPHFEERRLYQPNPSFVPRTNIAVGSPVNPVPVSSPVFFIGPSPQRSIQNHNAIMTQNIRQYPVIYNNNREVISTGERNYIITVGGPPVTSSQPEYEHISTPNFYQEQRLAQPHPVNESMMIGGYTNPQPISISRGKMLSGNISTNSVRGSNNGYSAKEKKHKAHGKRSNLPKATVSILNKWLHEHVNNPYPTVQEKRELLAKTGLTKLQISNWFINARRRKIFSGQNDANNFRRKFSSSTNLAKF
modifications: SS4c-C4b Full Gene AA seq
B3: SEQ ID NO 964: fusion protein having cucurbitadienol synthase activity (protein)
chain: MWRLKVGKESVGEKEEKWIKSISNHLGRQVWEFCSGENENDDDEAIAVANNSASKFENARNHFRNNRFHRKQSSDLFLAIQCEKEIIRNGAKNEGTTKVKEGEDVKKEAVKNTLERALSFYSAVQTSDGNWASDLGGPMFLLPGLVIALYVTGVLNSVLSKHHRQEMCRYIYNHQNEDGGWGLHIEGSSTMFGSALNYVALRLLGEAADGGEHGAMTKARSWILERGGATAITSWGKLWLSVLGVYEWSGNNPLPPEFWLLPYSLPFHPGRMWCHCRMVYLPMSYLYGKRFVGPITPIVLSLRKELYTIPYHEIDWNRSRNTCAKEDLYYPHPKMQDILWGSIYHVYEPLFSGWPGKRLREKAMKIAMEHIHYEDENSRYICLGPVNKVLNMLCCWVEDPYSDAFKFHLQRIPDYLWLAEDGMRMQGYNGSQLWDTAFSIQAIISTKLIDTFGPTLRKAHHFVKHSQIQEDCPGDPNVWFRHIHKGAWPFSTRDHGWLISDCTAEGLKASLMLSKLPSKIVGEPLEKNRLCDAVNVLLSLQNENGGFASYELTRSYPWLELINPAETFGDIVIDYSYVECTSATMEALALFKKLHPGHRTKEIDAAIAKAANFLENMQKTDGSWYGCWGVCFTYAGWFGIKGLVAAGRTYNNCVAIRKACNFLLSKELPGGGWGESYLSCQNKVYTNLEGNKPHLVNTAWVMMALIEAGQGERDPAPLHRAARLLINSQLESGDFPQQEIMGVFNKNCMITYAAYRNIFPIWALGEYSHRVLDMGSAAPGSGSGSGMIKHIVSPFRTNFVGISKSVLSRMIHHKVTIIGSGPAAHTAAIYLARAEMKPTLYEGMMANGIAAGGQLTTTTDIENFPGFPESLSGSELMERMRKQSAKFGTNIIIETVSKVDLSSKPFRLWTEFNEDAEPVTTDAIILATGASAKRMHLPGEETYWQQGISACAVCDGAVPIFRNKPLAVIGGGDSACEEAEFLTKYASKVYILVRKDHFRASVIMQRRIEKNPNIIVLFNTVALEAKGDGKLLNMLRIKNTKSNVENDLEVNGLFYAIGHSPATDIVKGQVDEEETGYIKTVPGSSLTSVPGFFAAGDVQDSRYRQAVTSAGSGCIAALDAERYLSAQE
modifications: SS4b-B8b Full Gene AA seq
B4: SEQ ID NO 967: fusion protein having cucurbitadienol synthase activity (protein)
chain: MWRLKVGKESVGEKEEKWIKSISNHLGRQVWEFCSGENENDDDEAIAVANNSASKFENARNHFRNNRFHRKQSSDLFLAIQCEKEIIRNGAKNEGTTKVKEGEDVKKEAVKNTLERALSFYSAVQTSDGNWASDLGGPMFLLPGLVIALYVTGVLNSVLSKHHRQEMCRYIYNHQNEDGGWGLHIEGSSTMFGSALNYVALRLLGEAADGGEHGAMTKARSWILERGGATAITSWGKLWLSVLGVYEWSGNNPLPPEFWLLPYSLPFHPGRMWCHCRMVYLPMSYLYGKRFVGPITPIVLSLRKELYTIPYHEIDWNRSRNTCAKEDLYYPHPKMQDILWGSIYHVYEPLFSGWPGKRLREKAMKIAMEHIHYEDENSRYICLGPVNKVLNMLCCWVEDPYSDAFKFHLQRIPDYLWLAEDGMRMQGYNGSQLWDTAFSIQAIISTKLIDTFGPTLRKAHHFVKHSQIQEDCPGDPNVWFRHIHKGAWPFSTRDHGWLISDCTAEGLKASLMLSKLPSKIVGEPLEKNRLCDAVNVLLSLQNENGGFASYELTRSYPWLELINPAETFGDIVIDYSYVECTSATMEALALFKKLHPGHRTKEIDAAIAKAANFLENMQKTDGSWYGCWGVCFTYAGWFGIKGLVAAGRTYNNCVAIRKACNFLLSKELPGGGWGESYLSCQNKVYTNLEGNKPHLVNTAWVMMALIEAGQGERDPAPLHRAARLLINSQLESGDFPQQEIMGVFNKNCMITYAAYRNIFPIWALGEYSHRVLDMGSAAPGSGSGSGMAVQNHILPLTRVM
modifications: SS4b-D4 Full Gene AA seq
B5: SEQ ID NO 971: fusion protein having cucurbitadienol synthase activity (protein)
chain: MWRLKVGKESVGEKEEKWIKSISNHLGRQVWEFCSGENENDDDEAIAVANNSASKFENARNHFRNNRFHRKQSSDLFLAIQCEKEIIRNGAKNEGTTKVKEGEDVKKEAVKNTLERALSFYSAVQTSDGNWASDLGGPMFLLPGLVIALYVTGVLNSVLSKHHRQEMCRYIYNHQNEDGGWGLHIEGSSTMFGSALNYVALRLLGEAADGGEHGAMTKARSWILERGGATAITSWGKLWLSVLGVYEWSGNNPLPPEFWLLPYSLPFHPGRMWCHCRMVYLPMSYLYGKRFVGPITPIVLSLRKELYTIPYHEIDWNRSRNTCAKEDLYYPHPKMQDILWGSIYHVYEPLFSGWPGKRLREKAMKIAMEHIHYEDENSRYICLGPVNKVLNMLCCWVEDPYSDAFKFHLQRIPDYLWLAEDGMRMQGYNGSQLWDTAFSIQAIISTKLIDTFGPTLRKAHHFVKHSQIQEDCPGDPNVWFRHIHKGAWPFSTRDHGWLISDCTAEGLKASLMLSKLPSKIVGEPLEKNRLCDAVNVLLSLQNENGGFASYELTRSYPWLELINPAETFGDIVIDYSYVECTSATMEALALFKKLHPGHRTKEIDAAIAKAANFLENMQKTDGSWYGCWGVCFTYAGWFGIKGLVAAGRTYNNCVAIRKACNFLLSKELPGGGWGESYLSCQNKVYTNLEGNKPHLVNTAWVMMALIEAGQGERDPAPLHRAARLLINSQLESGDFPQQEIMGVFNKNCMITYAAYRNIFPIWALGEYSHRVLDMGSAAPGSGSGSGMSASTHSPEPCL
modifications: SS4c-C4a Full Gene AA seq

test system: cucurbitadienol synthase activity; experiment: Cucurbitadienol synthase activities of fusion proteins in yeast strain with oxidosqualene boost, LCMS; type: cell-based, S. cerevisiae; conditions: average % activities over the average activities of the parent enzyme (Cucumis melo cucurbitadienol synthase)
Method: For analyzing cucurbitadienol, the first LCMS method included the use of C4 2.1×100 mm column, gradient 1 to 95% B for 6 minutes, and at flow rate of 0.55 ml/min; and the second LCMS method included the use of Waters Acquity UPLC Protein BEH C4 2.1×100 […], 1.7 μm, with guard, 62 to 67% B for 2 min, 100% B for 1 min, and at flow rate of 0.9 ml/min and ESI source positive single ion monitoring of 427 and 409.
The gene encoding for a cucurbitadienol synthase form Cucumis melo was codon optimized (SEQ ID: 907) and used as a starting point for generating a library of modifications. Modifications were introduced through standard molecular biology techniques consisting of fusion peptides at the N-terminus (i.e., 5′) or C-terminus (i.e., 3′) end of the enzyme. Plasmids libraries of modified cucurbitadienol synthase genes were transformed into a yeast strain with oxidosqualene boost. Enzyme activities were measured by ratios of peak heights or areas of 409 and 427 positive mass fragments at the expected retention times for cucurbitadienol vs. an internal standard using LCMS method 2 described above. Enzyme performance were scored as average % activities over the average activities of the parent enzyme (n=8). Step 1 sequences of the enzymes and the sequences that encode the enzyme can be found in SEQ ID NOs: 951-1012. Step 1 sequence also include the fusions SS2c-G10, SS2e-A7b, SS2d-G11. SS2e-A7a, SS4d-G5, SS4d-C7, SS3b-D8, and SS2c-A10a are disclosed herein.
A collection or library of S. cerevisiae in-frame fusion polynucleotdies for a cucurbitadienol synthase gene (DNA coding sequence provided in SEQ ID NO: 907, and protein sequence provided in SEQ ID NO: 902) was prepared. The in-frame fusion polynucleotides were cloned into a yeast vector molecule to generate fusion proteins.
Various fusion proteins were generated and tested for cucurbitadienol synthase activities.

Compared with B1, B2 is lower in “Activity (as compared to the parent)” value: 96% for the first, 35% for the second.

Going from B3 to B4, the “Activity (as compared to the parent)” value falls from 74% to 72%.

With B5 the “Activity (as compared to the parent)” value was 89%.
